# The list shows a part of the results. At the low end of the ranking the order means little.
# Molecular target: SIX1 homeodomain (reference allele) (UniProt Q15475)
# Experiment: universal protein binding microarray
# Settings: Universal all-10-mer PBM (8x60K, AMADID 030236), 300 nM GST-tagged protein, Alexa Fluor 488 anti-GST; buffer, salt, pH and temperature not stated; high values mean tight binding; most listed sequences are background and not binding sites; double strand, one strand shown
row,Sequence,binding signal [E-score]
1,CATCTTCC,0.0767
2,CATGAAGC,-0.253
3,TAGAGAGA,-0.0286
4,AAATCTAT,-0.0976
5,ATGTCTGC,-0.228
6,CGGAGGGA,0.119
7,ATGAGTTC,-0.0852
8,GCTCTTCC,0.0238
9,AGTATCTA,0.347
10,ATCGTCCA,0.0525
11,CCGAGAAA,-0.182
12,CGACTGGA,0.0801
13,CCACTGGG,-0.19
14,TCTTCTAA,0.0479
15,CAACCGCA,-0.111
16,AAACGACC,-0.0881
17,GGAGGAAC,-0.241
18,AAACCGGG,0.00689
19,ACGGGATA,0.376
20,TAATGTGA,0.079
21,ACGGCGAC,-0.146
22,GCTATAGA,-0.11
23,AAAACCCC,-0.0903
24,CCTAGAAG,0.0886
25,AGTCTCAA,-0.0444

row,Sequence,binding signal [E-score]
1,GGGAGCGA,-0.112
2,CACGAGAG,-0.0634
3,GGGGCTCA,0.167
4,CCTACTAG,-0.0519
5,AGGTCTCA,0.226
6,GTCTATCA,0.00211
7,CTCCGTCA,-0.122
8,GGAGTTAC,-0.0523
9,GTAGGGTA,0.204
10,ACGGGCCC,-0.191
11,ACAACCTA,-0.0656
12,AGGGCTAT,0.202
13,AGCTAGAG,-0.111
14,ACCAGCGC,-0.242
15,TCATCCAA,0.128
16,ACGAGAGG,-0.03
17,AACCTTAA,-0.126
18,ACGCTGCA,-0.189
19,CATCCTAA,0.0655
20,CGCAACTA,-0.12
21,AGTCTGGA,-0.13
22,GCATAAGA,0.046
23,GATTACAC,0.164
24,TGACGGCA,-0.123
25,TCGTCAGA,0.00131

row,Sequence,binding signal [E-score]
1,TCCAGTCA,-0.108
2,GCGCGGGA,-0.101
3,GAGACGGA,0.272
4,TAGGGGAA,0.02
5,ATCTCCCG,0.222
6,AAGGTGAC,0.0801
7,CGTACCGA,0.0466
8,ACACGCCC,0.0677
9,CCAAACTC,-0.131
10,AGCTCGGG,0.0533
11,CACCCCGA,0.26
12,ATCAACGG,0.102
13,GCCAAGGA,-0.0931
14,GCATCAGA,0.127
15,AATAAGGA,-0.0537
16,GGTGATTA,0.0864
17,GTCATTCA,-0.14
18,ATGATGAG,0.0283
19,ACCTTTTC,-0.125
20,CGGAGTAG,-0.00732
21,CAGAGGCC,-0.181
22,ACGGACGA,-0.163
23,ACCTGTTC,-0.00271
24,ACTTAGGC,-0.336
25,CCGATGAC,0.0434

row,Sequence,binding signal [E-score]
1,TAATCAAA,-0.108
2,GCATCGGC,0.0576
3,GCTTATAC,0.148
4,CCTGAGAA,0.0475
5,GGCGGACA,-0.0814
6,CATTAGTC,-0.0573
7,GTCTTCGA,-0.0922
8,AGCTATAT,0.2
9,ACGCACGA,0.116
10,GACGATCC,0.387
11,GTGGGGAA,-0.0528
12,ATCGCAGC,0.124
13,GCATGTCA,-0.184
14,CCTGAAGA,-0.168
15,GCCTCAGC,-0.104
16,ACACCCGC,0.27
17,CGACAGAC,-0.0668
18,CTCCGTTC,-0.0381
19,CAGCAATC,-0.0328
20,CGGTGGAC,-0.102
21,CGTACGTA,-0.0338
22,GCCTGCCC,-0.0419
23,CCCCGGCC,-0.0832
24,TGGCACCA,-0.203
25,ACAGATTC,-0.00829

row,Sequence,binding signal [E-score]
1,CAATCGCG,0.0369
2,AAGGGCCC,-0.244
3,CAACGTTG,-0.218
4,CAATAAAG,-0.00643
5,AGGATTAG,0.108
6,ATACGGTG,0.328
7,AGTAAGGG,0.106
8,CAGTCACA,0.0493
9,CCAACGTA,-0.0464
10,ATATAAAA,0.0381
11,ATACAAGC,0.0789
12,CCTATCCG,0.316
13,CAACTGGG,-0.0249
14,AACGAATG,-0.26
15,CCAACGAG,-0.14
16,ACAGAGAG,-0.208
17,GCGCCATA,0.00511
18,AATGCGCG,0.129
19,CGCACCAC,-0.0969
20,GTAAATGA,0.0671
21,CCATGCGA,0.091
22,ACCTTTGG,-0.12
23,GCAGATGA,0.0415
24,ACTGGAGA,0.0225
25,AAGGTCTG,-0.238

row,Sequence,binding signal [E-score]
1,CTTAAGCC,-0.17
2,CTCACAGA,-0.0163
3,GAGGCTGC,-0.133
4,ATACGCCG,0.277
5,CGGGTGTC,0.439
6,CTATCCAG,0.199
7,ACATTATA,0.0123
8,CTTGTCCA,-0.151
9,CCTTACGA,-0.16
10,CCGGCCGA,0.104
11,CAATGCCA,-0.191
12,CTAGTTGA,-0.0577
13,TTCGTCAA,-0.157
14,GAGCACGA,0.0635
15,CCCAAGAA,0.0576
16,TAAAGTAA,-0.137
17,ACGTCTCA,0.322
18,CTCGTCTC,0.129
19,AGTTGCGC,-0.296
20,ACTCTCCG,-0.0765
21,TCCCGTAA,-0.0257
22,ATATTGCC,0.135
23,ACAGTTCC,-0.209
24,CTCACACC,0.107
25,CGATTCAC,0.0285

row,Sequence,binding signal [E-score]
1,AAAGTTAA,-0.084
2,GGAGCGAC,-0.149
3,CTAATGGA,-0.0426
4,CTTAATTA,-0.0491
5,ATTCTGTG,-0.0636
6,ACCACCGG,0.0147
7,GCTTGACA,-0.0185
8,AGAATTTA,-0.19
9,CAGTAGAG,-0.014
10,AACCAAAG,-0.197
11,AAAGCAGA,-0.124
12,AAAAAGGG,-0.0103
13,GTGGTAAA,-0.213
14,CCACCGTA,0.0422
15,ACACCCAA,0.331
16,ACAACGCG,-0.0711
17,AAGGGAAG,0.0184
18,CAACATCC,-0.0548
19,GGCCCCTA,-0.0821
20,AAATTTGT,-0.192
21,GTCAGCCA,-0.129
22,CTAACTCA,-0.249
23,TATTAACA,0.124
24,AAGGGTTC,0.0168
25,GCGCAAAA,0.101

row,Sequence,binding signal [E-score]
1,AGATATCC,0.442
2,AGGCTTGA,-0.135
3,TACCATCA,0.111
4,CCAAATTC,-0.146
5,CGCATATC,0.414
6,ATATGGGA,0.319
7,CAGCGAGC,0.0528
8,ACACATCA,-0.154
9,CTTCGTAC,-0.139
10,CGGACCAG,-0.149
11,AACCAAGA,0.0429
12,ATACTGCG,0.185
13,CCACACAA,-0.233
14,CGCGAGTC,-0.0698
15,CGTGCTGC,-0.329
16,ATCAGAGC,0.0546
17,CGGACTAA,-0.123
18,CCCGACTC,-0.016
19,GGTGCGCA,-0.0878
20,CATAGGGG,0.112
21,ATTCATGG,-0.197
22,ACAGCGGT,-0.149
23,AAGGTCAG,-0.163
24,GCGCTTAC,-0.117
25,ACCCTCAT,-0.0636

row,Sequence,binding signal [E-score]
1,AGCTGCCG,-0.134
2,CCTGCTAG,-0.173
3,CATGCGCA,-0.075
4,ATCCTACG,0.143
5,CAAGATAA,0.043
6,CTAGACCA,0.0647
7,ACCGCAAA,-0.056
8,ACATCAAG,-0.223
9,AACCTGTG,-0.243
10,CCGAGTCA,-0.0418
11,GAAACGCA,-0.225
12,AGTGAGTA,0.128
13,AAAACCGC,-0.123
14,GGATCGTA,0.383
15,GGGTGACA,0.0532
16,AATTCGTC,-0.0703
17,CTTCAAAG,-0.164
18,GCAACAAA,-0.0851
19,TAGACACA,-0.00698
